The results in this text go back to patent publication US20070059306A1 (TRUBION PHARMACEUTICALS, published 2007).

In this assay the target is T1, CD37 (human, UniProt P11049 1-281).
T1 construct: whole, on cells; Endogenous CD37 on human cells; also called CD37 antigen; CD37 cell surface receptor
T1 sequence (looked up): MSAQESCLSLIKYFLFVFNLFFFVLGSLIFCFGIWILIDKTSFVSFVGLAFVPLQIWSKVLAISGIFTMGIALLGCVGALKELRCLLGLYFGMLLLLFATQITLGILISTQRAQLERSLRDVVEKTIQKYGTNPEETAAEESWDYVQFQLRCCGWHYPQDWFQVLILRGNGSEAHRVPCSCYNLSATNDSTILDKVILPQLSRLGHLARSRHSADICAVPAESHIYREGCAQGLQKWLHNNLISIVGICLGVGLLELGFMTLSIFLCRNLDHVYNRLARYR
Briefly: binding to Ramos B cells.

B1: Humanized TRU-016 construct no. 019041 (Fc fusion)
chain: EIVLTQSPATLSLSPGERATLSCRASENVYSYLAWYQQKPGQAPRLLIYFAKTLAEGIPARFSGSGSGTDFTLTISSLEPEDFAVYYCQHHSDNPWTFGQGTKVEIKGGGGSGGGGSGGGGTGEVQLVQSGAEVKKPGESLKISCKGSGYSFTGYNMNWVRQMPGKGLEWMGNIDPYYGGTTYNRKFKGQVTISADKSISTAYLQWSSLKASDTAMYYCARSVGPFDYWGQGTLVTVSSDQ[human IgG1 Fc with changes not shown]
notes: 019006 with CDR-H3 JH4, 15aa gly4ser linker, SSC-P hinge
With B1, the binding result is “binds”.

B2: Humanized TRU-016 construct no. 019044 (Fc fusion)
chain: EIVLTQSPATLSLSPGERATLSCRASENVYSYLAWYQQKPGQAPRLLIYFAKTLAEGIPARFSGSGSGTDFTLTISSLEPEDFAVYYCQHHSDNPWTFGQGTKVEIKGGGGSGGGGSGGGGTGEVQLVQSGAEVKKPGESLKISCKGSGYSFTGYNMNWVRQMPGKGLEWMGNIDPYYGGTTYNRKFKGQVTISADKSISTAYLQWSSLKASDTAMYYCARSVGPFDSWGQGTLVTVSSDQ[human IgG1 Fc with changes not shown]
notes: 019006 with CDR-H3 JH5a, 15aa gly4ser linker, SSC-P hinge
For the molecule B2, the binding result is “binds”.
